The source gives no read counts; variants with many changes may rest on few reads.
B1: LINE1-full (parent)
chain: UACGUAGGUGGUUUUCCCCUGAUAGUGCUAAGGGGGCCUGGAAGUUUGGACUGGGCAGAGCUCAACACAGCGUGGCAAAGUGGCUGUGGCUAGACUGCCUCUCUGGAUUCCUCGUCACUCAGCAGGGCAUCUCUGAGAGAAAUGCC

Variants of: B1
Assay: self-cleavage, relative activity (ratio to wild type); higher = more cleavage; in vitro, sequencing; the parent is a self-cleaving ribozyme

Variant | self-cleavage
UACGUAGGUGGUUUUCCCCUGAAAGUGCUAAGGGGGCCUGGAAGUUUGGUCUGGGCAGAGCUCAACACAGCGUGGCAAAGUGGCUGUGGCUAGACUGCCUCUCUGGAUUCCUCGUCACUCGGCAGGGCAUCUCUGAGAGAAAUGCC [U23A A50U A121G] | 1.67
UACGUAGGUGGUUUUCCCCUGAUAAUGCUAAGGGGGCCUGGAAGUUUGGACUGGGCAGAGCUCAACACAGCGUGGCAAAGUGGCUGUGGCUAGACCGCCUCUCUGGAUUCCUCGUCACUCAGCAGGGCAUCACUGAGAGAAAUGCC [G25A U96C U132A] | 0.08
UACGUAGGUGGUUUUCCCCUGAUAGUGCUAGGGGGGCCUGGAAGUUUGGACUGGGCAGAGCUCAACACAGCAUGGCAAAGUGGCUGUGGCUAGACUGCCUCUCUGGAUUCCUCGACACUCAGCAGGGCAUCUCUGAGGGAAAUGCC [A31G G72A U115A A138G] | 1.05
UACGUAGGUGGUUUUCCCCUGAUAGUGCUAAGGGGGCCUGGAAGUUUGGACUGGGCAGAGCUCAACACAGCGUGGCAAAGAGGCUGUGGCUAGACUGCCUCUCUGGAUUCCUCUUCACCCAGCGGGGCAUCUCUGAGAGAAAUGCC [U81A G114U U119C A124G] | 1.76
UACGUAGGUGGUUUUCCCUUGAUAGUGCUAAGGGGGCCUGGAAGUUUGGACUGGGCAGAGCUCAACACAGCGUGGCAAAGUGGCUGUGGCUAGACCGCCUCUCUGGGUUCCUCGUCACUAAGCAGGGCAUCUCUGAGGGAUAUGCC [C19U U96C A107G C120A A138G A141U] | 0
UACGUAGGUGGUUUUCCCCUGAUAGUGCUAAGGGGGCCUGGAUGUUUGGACUGGGCAGGGCUCAACUCAGCGUGGCAAAGUGGCUGUGGCUAGACUGCCUCUCUGGAUUCCUCGUCACUCGGCAGGGCAUCUCUGAGAGAAAUGCC [A43U A59G A67U A121G] | 0.13
UACGUAGGUGGUUUUCCCCUGAUAGUGCUAAGGGGGCCUGGAAGUUUGGACUGGGCAGGGCUCAACACAGCGUGGCAAAGUGUCUGUGGCUAGACUGCCUCUCUGGAUUCCUCGUCACUCAGCAGGGCAUCUCUGAGGGAAAUGCC [A59G G83U A138G] | 0.05
UACGUAGGUGGUUUUCCCCUGAUAGUGCUAGGGGGGCCUGGAAGUUUGGACUGGGCAGAGCUCAGCACAGCGUGGCAAAGAGGCUGUGGCUAGACUGCCUCUCUGGAUUCCUCGUCACUCAGCAGGGCAUCUCUGAGAGAAAUGCC [A31G A65G U81A] | 0.15
UACGUAGGUGGUUUCCCCCUGAUAGAGCUAAGGGGGCCUGGAAGUCUGGACUGGGCAGAGCUCAACACAGCGUGGCAAAGUGGCUGUGGCUAGACUGCCUCUCUGGAUUCCUCGUCACUCAGCAGGGCAUCUCUGAGAGAAAUGCC [U15C U26A U46C] | 1.93
UACGUAGGUGGCUUUCCCCUGAUAGUGCUAAGGGGGCCUGGAAGUUUGGACUGGGCAGAGCUCAACACAGCGUCGCAAAGUGGCUGUGGCUAGACUGCCUCUCUGGAUUCCUCGUCACUCGGCAGGGCAUCUCUGAGAGAGAUGCC [U12C G74C A121G A141G] | 1.8
UACGUAGGUGGUUUUCCCCUGAUAGUGCUAAGGGGGCCUGGAAGUUUGGACCGGGCAGAGCUCAACACAGCGUGGCAAAGUGGCUGUGGCUAGACUGCCUCUCUGGAUUCCUCGACACUCGGCAGGGCAUCUCUGAGAGAAAUGCC [U52C U115A A121G] | 0.28
UACGUAGGUGGUUUUCCCCUGAUAGUGCUAAGGGGCCCUAGAAGUUUGGACUGGGCAGAGCUCAACACAGCGUGGCAAAGUGGCUGUGGCUAGACUGCCUCUCUGGAUUCCUCGUCACUCAGCAGGGCAUCACUGAGAGUAAUGCC [G36C G40A U132A A140U] | 1.08
UACGUAGGUGGUUAUCCCUUGAUAGAGCUAAGGGGGCCUGGAAGUUUGGACUGGGCAGAGCUCAACACAGCGUGGCAAAGUGGCUGUGGCUAGACUGCCUCUCUGGAUUCCUCGUCACUCAGCAGGGCAUCUCUGAGAGAAAUGCC [U14A C19U U26A] | 1.07
UACGUAGGUGGUUUUCCCCUGAUAGUGCUAAGGGGGCCUGGAAGUUUGGACUGGGCAGGGCUCAACACAGCGUGGCAAAGUGGCUGUGGCUAGACUGCCUCUCUGGAUUCCUCGUCACUUAGCAGGGCGUCUCUGAGAGAAAUGCC [A59G C120U A129G] | 0.08
UACGUAGGUGGUUUUCCCCCGAUAGUGCUAAGGGGGCCUGGAAGUCUGGACUGGGCAGAGCUCAACCCAGCGUGGCAAAGUGGCUGUGGCUAGACUGCCUCUCUGGAUUCCUCGUCACUCAGCAGGGCAUCUCUGAGAGAAAUGCC [U20C U46C A67C] | 0
UACGUAGGUGGUUUUCCCCUGAUAGUGCUAAGGGGGCCUGGAAGUUUGGACUGGGCAGAGCUCAACUCAGCGUGGCAAAGUGGCUGUGGCUAGACUGCCCCCCUGGAUUCCUCGUCACUCGGCAGGGCAUCUCUGAGAGAAAUGCC [A67U U100C U102C A121G] | 0
UACGUAGGUGGUUUUCCCCUGAUAGUGCUAAGGGGGCCUGGAAGUUUGGUCUGGGCAGAGCUCAACACAGCGAGGCAAGGUGGCUGUGGCUAGACUGCCUCUCCGGAUUCCUCGUCACUCAGCAGGGCAUCUCUGAGAGAAAUGCC [A50U U73A A79G U104C] | 1.09
UACGUAGGUGGUCAUCCCCUGAUAGUGCUAAGGGGGCCUGGAAGUUUGGACUGGGCAGAGCUCAACACAGCGUGGCAAAGUGGCUGUGGCCAGACUGCCUCUCUGGAUUCCUCGUCACUCAGCAGGGCAUCUCUGAGAGAAAUGCC [U13C U14A U91C] | 0.16
UACGUAGGUGGUUUUCCCCUGAUAGUACUAAGGGGGCCUGGAAGUUUGGACUGGGCAGAGCUCAACAAAGCGUGGCAAAGUGGCCGUGGCUAGACUGCCUCUCUGGAUUCCUCGUCACUCAGCAGGGCAUCUCUGAGAGAAAUGCC [G27A C68A U85C] | 0.05
UACGUAGGUGGUUUUCCCCUGAUAGUGCUAAGGGGGCCUGGAAGUUUGGACUGGGCAGAGCUCAACACAGCGUGGUAAAGUGGCCGUGGCUAGACUGCCUCUCUGGAUUCCUCGUCACUCAGCAGGGCAUCUCUGAGAGAGAUGCC [C76U U85C A141G] | 0.27

Variant | self-cleavage
UACGUAGGUGGUUUUCCCCUGAUAGUGCUAAGGGGGCCUGGAGGUUAGGACUGGGCAGAGCUCAACACAGCGUGGCAAAGUGGCUGUGGCUAGACUGCCUCUCUGGAUUCCUCGUCACUCGGCAGGGCAUCUCUGAGAGAAAUGCC [A43G U47A A121G] | 1.6
UACGUAGGUGGUUUUCCCCUGAUAGAGCUAAGGGGGCCUGGAAGUUUGGACUGGGCAGAGCUCAACACAGCGUGGCAAAGUGGCUGAGGCUAGACUGCCUCUCUGGAUUCCUCGUCACUCAGCAGGGCACCUCUGAGAGAGAUGCC [U26A U87A U130C A141G] | 0.11
UACGUAGGUGGUUUUCCCCUGAUAGUGCUAAAGGGGCCUGGAGGUUUGGACUGGGCAGAGCUCAACACAGCGUGGCAAAGUGGCCGUGGCUAGACUGCCUCUCUGGAUUCCUCGUCACUCAGCAGGGCAUCUCUGAGAGAAAUGCC [G32A A43G U85C] | 0.11
UACGUAGGUGGUUUUCCCCUGAUAGUGCUAAGGGGGCCUGGAAGCUUAGACUGGGCAGAGCUCAACACAGCGUGGCAAAGUGGCUGUGGCGAGACUGCCUCUCUGGAUUCCUCGUCACUCAGCAGGGCAUCUCUGAGAGAAAUGCC [U45C G48A U91G] | 0.01
UACGUAGGUGGCUUUCCUCUGAUAGUGCUAAGGGGGCCUGGAAGUUUGGACUGGGCAGAGCUCAACACAGCGUGGCAAAGUGGCUGUGGCUAGACUGCCUCUCUGGAUUCCUCGUCACUCAGCAGGGCUUCUCUGAGAGAAAUGCC [U12C C18U A129U] | 0.91
UACGUAGGUGGUUUUCCCCUGAUAGUGCUAAGGGGGCCAGGAAGUUUGGACUGGGCAGAGCUCAGCACAGCGUGGCAAAGUGGCUGUGGCUAGACUGCCUCUCUGGAUUCCUCGUCACUCAGCAGGGCAUCUCUGAGGGAAAUGCC [U39A A65G A138G] | 0
UACGUAGGUGGCUUUCCCCUGAUAGUGCUAAGGGGGCCUGGAAGUUUGGACUGGGCAGAGCUCAACACAGCGUGGCAAAGUGGCUGUGGCUAGACUGCCUCUCUGGAUUCCCCGCCACUCAGCAGGGCAUCUCUGAGAGAAAUGCC [U12C U112C U115C] | 2.3
UACGUAGGCGGUUUUCCCCUGAUAGUGCUAAGGGGGCCUGGAAGUUCGGACUGGGCAGAGCUCAACACAGCGUGGCAAAAUGGCUGUGGUUAGACUGCCUCUCUGGAUCCCCCGUCACUCAGCAGGGCAUCUCUGAGAGAUAUGCC [U9C U47C G80A C90U U109C U112C A141U] | 0.05
UACGUAGGUGGUUUUCCCCUGAUAGUGCUAAGGGGGCCUGGAAGUUUGGACUGGGUAGAGCUCAACACAGCGUGGCAAAGUGGCUGUGGCUAGACUGCCUCUCGGGAUUCCUCGUCACUCAGCAGGGCACCUCUGGGAGAAAUGCC [C56U U104G U130C A136G] | 0.17
AACGUAGGUGGUUUUCCCCUGAUAGUGCUAAGGGGGCCUGGAAGUUUGGACUGGGCAGAGCUCAACACAGCGUGGCUAGGUGGCUGUGGCUAGACUGCCUCUCUGGACUCCUCGUCACUCAGCAGGGCAUCUCUGAGAGAAAUGCC [U1A A77U A79G U108C] | 0.34
UACGUAGGUGGUUUUCCCCUGAUAGUGCUAAGGGGGCCUGGAAGUUUGGACUGGGCAGAGCUCAACACGGCGUGGCAAAUUGGCUGCGGCUAGACUGCCUCUCUGGAUUCCUCGUCACUCAGCAGGGCAUCUCUGAGAGAAAUGCC [A69G G80U U87C] | 0
UACGUAGGUGGUUUUCCCCUGAUAGUGCUAAGGGGGCCUGGAAGUUUGGACAGGGCAGAGCUCAACACAGCGUGGCAAAGUGGCUGUGGCUAGACUGCCCCUCUGGAUUCCUCGUCACUCAGCAGGGCAUCUCUGAGAGAAGUGCC [U52A U100C A142G] | 1.96
UACGUAGGUGGUUUUCCCCUGAUAGUGCUAAGGGGGCCUGGAAGUUUGGACUGGGCAGAGCUCAGCACAGCGUGGCAAAGUGGCUGUGGCUAGACUGCCUCUCUGGAUUCCUCGUAACUCGGCAGGGCAUCUCUGAGAGAAAUGCC [A65G C116A A121G] | 0.03
UACGUAGGUGGUUUCCCCCUGAUAGUGCUAAGGGGGCCUGGAAGUUUGGACUGGGCAGAGCUCAACACAGCGUGGCAAAGUGGCUGUGGCUAGACUGCCUCUCUGGAUUCCUCGUCACUCAGCAGGGCAUCUCUGAGAGGAACGCC [U15C A140G U143C] | 1.78
UACGUAGGUGGUUUUCCCCUGCUAGUGCAAAGGGGGCCUGGAAGUUUGGACUGGGCAGAGCUCAACACAGCGUGGCAAAGUGGCUGUGGCUAGUCUGCCUCUCUGGCUUCCUCGUCACUCAGCAGGGCAUCUCUGAGAGAAAUGCC [A22C U29A A94U A107C] | 0.64
UACGUAAGUGGUUUUCCCCUGAUAGUGCUAAGGGGGCCUGGAAGUUUGGACUGGGCAGAGCUCAACACAGCGUGGCAAAGUGGCUGAGGCUAGACCGCCUCUCUGGAUUCCUCGUCACUCAGCAGGGCAUCUCUGAGAGAAAUGCC [G7A U87A U96C] | 0.11
UACGUAGGUGGUUUUCCCCUGAUAAUGCUAAGGGGGCCUGGAAUUUUGGACUGGGCUGAGCUCAACACAGCGUAGCAAAGUGGCUGUGGCUAGACUGCCUCCCUGGAUUCCUCGCCACUCAGCAGGGCAUCUCUGAGAGAAAUGCC [G25A G44U A57U G74A U102C U115C] | 0.12
UACGUAGGUGGUUUUCCCCUGAUAGUGCUAAGGGGGCAUGGAAGUUUGGACUGGGCAGGGCUCAACGCAGCGUGGCAAAGUGGCUGUGGCUAGACUGCCUCUCUGGAUUCCUCGUCACUCAGCAGGGCAUCUCUGAGAGAAAUGCC [C38A A59G A67G] | 0.14
AACGUAGGUGGUUUUCCCCUGAUAGUGCUAAGGGGGCCAGGAAGUUUGGACUGGGCAGAGCUCAACACAGCGUGGCAAAGAGGCUGUGGCUAGACUGCCUCUCUGGAUUCCUCGUCACUCAGCAGGGCAUCUCUGAGAGGAAUGCC [U1A U39A U81A A140G] | 1.85

Source: the RNAGym collection of RNA variant scans (doi:10.7554/elife.90254)
